Data as given in publication PMC9837865 (Pharmacology, biochemistry, and behavior, 2022).

Tested on: male and female C57BL/6 mice
Assay: Δ9-THC drug discrimination, substitution tests
Conditions: for dose with significant decrease in response rate: compared to vehicle

Row | SMILES | less potent than the 3 compounds in the higher potency group (males, vs 5F-MDMB-PICA, 5F-EDMB-PINACA, MDMB-4en-PINACA) | more potent than the 4 compounds in the second group (males, vs MMB-FUBICA, FUB-AKB48, MMB-4en-PICA, FUB-144) | dose that significantly suppressed overall responding (female mice) [mg/kg] | level of substitution (responding on the Δ9-THC-associated aperture) (female mice, up to 100 mg/kg) [%] | dose with significant decrease in response rate (male mice) [mg/kg] | dose that fully substituted for Δ9-THC (male mice, i.p.) [mg/kg] | more potent in females than males (Δ9-THC discrimination ED50) (females vs males) [fold]
1 | COC(=O)[C@@H](NC(=O)c1cn(CCCCCF)c2ccccc12)C(C)C [5F-MMB-PICA, methyl (2S)-2-[[1-(5-fluoropentyl)indole-3-carbonyl]amino]-3-methylbutanoate] | 13- to 19 fold | 2.9- to 9.7 fold |  |  |  |  | 
2 | CCCCn1nc(C(=O)N[C@@H](Cc2ccccc2)C(N)=O)c2ccccc21 [APP-BINACA, N-[(2S)-1-amino-1-oxo-3-phenylpropan-2-yl]-1-butylindazole-3-carboxamide] |  |  | 100 | < 80 | 100 | 100 | 
3 | CCCCCc1cc(O)c2c(c1)OC(C)(C)[C@@H]1CCC(C)=C[C@@H]21 [Δ^9-THC, Δ^9-tetrahydrocannabinol, reference compound] |  |  |  |  | 10 |  | 1.5
